Data taken from PMC4336329 (PLoS ONE, 2015).
Screen size: about 310,000 compounds; about 14,000 (4.5%) showed an effect of 50% or more. Effects have a minus sign here. Some of the results follow.

Target: human ether-à-go-go-related gene (hERG) potassium channel (human, UniProt Q12809)
Assay: primary screen, population patch clamp on CHO cells stably expressing hERG
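Also: peak tail current of the secondary pulse compared with the same well before compound.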

human ether-à-go-go-related gene (hERG) potassium channel, sequence (Q12809 whole entry, looked up): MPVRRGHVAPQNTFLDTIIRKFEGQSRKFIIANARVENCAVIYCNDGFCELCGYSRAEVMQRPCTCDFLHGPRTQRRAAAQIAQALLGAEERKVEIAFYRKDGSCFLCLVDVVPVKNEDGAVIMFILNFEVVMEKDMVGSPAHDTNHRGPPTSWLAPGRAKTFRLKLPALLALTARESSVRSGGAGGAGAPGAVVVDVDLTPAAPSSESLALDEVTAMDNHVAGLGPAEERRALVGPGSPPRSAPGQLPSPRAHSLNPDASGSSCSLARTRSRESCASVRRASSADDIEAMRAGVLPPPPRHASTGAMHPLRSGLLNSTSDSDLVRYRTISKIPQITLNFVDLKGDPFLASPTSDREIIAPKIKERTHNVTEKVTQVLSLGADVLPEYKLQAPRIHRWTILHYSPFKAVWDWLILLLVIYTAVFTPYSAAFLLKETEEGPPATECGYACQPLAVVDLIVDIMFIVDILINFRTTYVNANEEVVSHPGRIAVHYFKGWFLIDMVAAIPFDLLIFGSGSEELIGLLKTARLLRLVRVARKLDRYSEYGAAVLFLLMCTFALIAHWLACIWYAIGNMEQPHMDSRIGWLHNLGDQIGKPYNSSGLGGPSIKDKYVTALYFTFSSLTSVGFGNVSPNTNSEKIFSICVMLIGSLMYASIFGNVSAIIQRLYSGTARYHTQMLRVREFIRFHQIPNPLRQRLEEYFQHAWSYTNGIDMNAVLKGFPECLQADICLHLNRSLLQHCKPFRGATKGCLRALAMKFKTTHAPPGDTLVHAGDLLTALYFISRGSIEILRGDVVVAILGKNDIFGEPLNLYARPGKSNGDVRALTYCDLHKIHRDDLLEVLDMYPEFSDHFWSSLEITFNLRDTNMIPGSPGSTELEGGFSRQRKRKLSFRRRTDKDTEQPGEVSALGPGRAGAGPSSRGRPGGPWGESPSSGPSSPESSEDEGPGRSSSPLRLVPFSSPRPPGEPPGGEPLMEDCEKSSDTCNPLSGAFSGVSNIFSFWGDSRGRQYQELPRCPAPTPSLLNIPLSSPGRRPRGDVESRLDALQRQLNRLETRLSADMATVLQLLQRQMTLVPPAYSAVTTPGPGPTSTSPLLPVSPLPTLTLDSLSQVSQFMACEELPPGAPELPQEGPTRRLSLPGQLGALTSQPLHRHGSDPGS

Row | SMILES | hERG current change (%, negative = inhibition) at 10uM [%]
1 | O=C(NCC1CCCN(C(=O)Cc2ccccc2Cl)C1)c1ccc(F)cc1 (centres unmarked) | -12.8
2 | NC(=O)C1CCN(c2nc(C3CC3)nc3c2nnn3Cc2ccccc2)CC1 | -21.2
3 | Cc1c(NC(=O)Nc2ccc(C(C)(C)C)cc2)c(=O)n(-c2ccccc2)n1C | 21
4 | COc1ccc(-n2nc3c(N4CCC(C(=O)N5CCC(C)CC5)CC4)nnc(C)c3c2C)cc1 | -46.3
5 | CC(=O)Nc1ccc(OCCC[n+]2ccccc2)cc1.[Cl-] | 40.4
6 | Clc1ccc2nnc(Cl)n2n1 | 18.8
7 | O=C(CSc1nc2c(c(=O)[nH]1)CCC2)Nc1ccc(F)cc1 | 14
8 | CN(CC(=O)Nn1cnnc1)S(=O)(=O)c1ccccc1 | 17
9 | Cc1c(CCC(=O)O)c(=O)oc2c(C)c(OCc3cc4c(cc3Cl)OCO4)ccc12 | 8.28
10 | CCCC(=O)C1=C(O)C(C(=O)OC)C(C)(C)CC1=Nc1cccc([N+](=O)[O-])c1 (centres unmarked) | -4.48
11 | COc1ccc(NC(=O)C2CCN(S(=O)(=O)c3cccc4cccnc34)CC2)cc1OC | 9.47
12 | CCOc1ccc(OCC)c(NC(=O)C2CCN(S(=O)(=O)c3cccnc3)CC2)c1 | -29.9
13 | O=C(c1ccc2c(=O)n(CCc3ccccc3)c(=O)[nH]c2c1)N1CCN(c2ccccc2)CC1 | 7.84
14 | Cc1ccc(/C=N/NC(=O)c2ccoc2C)o1 | 11.9
15 | CC(=O)Nc1cccc(C(=O)NNC(=O)c2n[nH]c(=O)c3ccccc23)c1 | -9.25
16 | NC(=O)COC(=O)CSc1ccc2ccccc2c1 | -6.46
17 | COc1cc(OC)cc(C(=O)NCCCCCCNC(=O)c2cc(OC)cc(OC)c2)c1 | -2.76
18 | O=C(CN1C(=O)C2CC=CCC2C1=O)Nc1ccc(S(=O)(=O)Nc2ncccn2)cc1 (centres unmarked) | 7.99
19 | CCc1c(C)nc2c(-c3ccccc3)c(C)[nH]n2c1=O | 23.4
20 | CCCCn1c(-c2csc3c2CCCC3)n[nH]c1=S | 1.64
21 | Cc1ccc(C(=O)N2NC(c3ccc(F)cc3)C3C(=O)N(c4ccc(C)c(C)c4)C(=O)C32)cc1 (centres unmarked) | 8.74
22 | CCCSC1=N/C(=C/c2ccsc2)C(=O)N1c1ccccc1 | 16.5

Row | SMILES | hERG current change (%, negative = inhibition) at 10uM [%]
23 | S=c1[nH]nc(-c2ccc(Cl)cc2)n1CC1CCCO1 (centres unmarked) | 14.8
24 | O=C(Cn1nc(-c2ccco2)ccc1=O)Nc1ccc(Cl)c(Cl)c1 | 13.6
25 | Cc1ccccc1NC(=O)CCS(=O)(=O)c1ccc(Br)s1 | 24.3
26 | O=C1NCCCCC1NC1CC(=O)N(c2ccccc2)C1=O (centres unmarked) | 4.68
27 | Cc1ccc(S(=O)(=O)CC(=O)NCc2ccc(Cl)cc2)cc1 | -3.37
28 | COc1ccccc1N1CCN(C(=O)CSc2nnc(NC(=O)C(C)C)s2)CC1 | 2.66
29 | CCN(CC(=O)Nc1ccc(N2CCOCC2)cc1)C(=O)c1ccc(C(F)(F)F)cc1 | -5.99
30 | Clc1ccc(C(c2nnnn2CCc2ccccc2)N2CCSCC2)cc1 (centres unmarked) | 0.814
31 | CCC(C)(C)n1nnnc1C(C(C)C)N1CCN(C(=O)c2ccco2)CC1 (centres unmarked) | -29.7
32 | COc1ccc(C(=O)Nc2ccnn2C2CCN(C(=O)C3CCOC3)CC2)cc1 (centres unmarked) | 17.9
33 | CCCC(=O)Nc1nnc(SCC(=O)Nc2ccc3c(c2)OCCO3)s1 | 15.4
34 | O=C(Nc1c(F)cc(F)cc1Br)C1CCCO1 (centres unmarked) | 5.42
35 | Cc1cc(C)nc(NN=C2CCCC2)n1 | 10.3
36 | COc1ccc(C(=O)COc2ccc(NC(C)=O)cc2)cc1 | 9.72
37 | O=S(=O)(Nc1cccc(-c2ccc3nncn3n2)c1)c1cc(F)ccc1F | 0.23
38 | CN(/N=C/c1ccncc1)c1cnn(-c2ccc(F)c(Cl)c2)c(=O)c1Cl | -35.3
39 | CSc1nnc(-c2ccccc2)c(=O)[nH]1 | 13.9
40 | Cc1ccc(O)c(-c2cc(C(=O)NCc3ccncc3)[nH]n2)c1 | 9.85
41 | COc1cc2c(C(=O)N3CCOCC3)c(CSc3ccccc3)n(C)c2cc1Br | -6.35
42 | COc1ccc(C(=O)/C=C/C(=O)N(CC(=O)NC2CCCCC2)Cc2cccs2)c(O)c1 | -8.34
43 | CCOC(=O)N/N=C(\C)c1cccs1 | 20.2
44 | COc1ccc2cc(C(N)=O)c(=Nc3ccccc3)oc2c1 | 6.28
